{
  "source": "the RNAGym collection of RNA variant scans (doi:10.1073/pnas.2313332121)",
  "parents": {"B1": {"name": "TPR 5TU (parent)", "chain": "GGAUCUUCUCGAUCUAACAAAAAAGACAAAUCUGCCACAAAGCUUGAGAGCAUCUUCGGAUGCAGAGGCGGCAGCCUUCGGUGGCGCGAUAGCGCCAACGUUCUCAACUAUGACACGCAAAACGCGUGCUCCGUUGAAUGGAGUUUAUCAUG"}},
  "note": "Variants at the floor of the assay are shown more often than the library holds them.",
  "data": [
    {"variants_of": "B1", "experiment": "polymerase ribozyme fitness, log enrichment relative to wild type (log ratio); higher = more active; in vitro selection for triplet polymerase activity", "summary_of_the_method": "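Mutant libraries were PCR-built and transcribed for each subunit of a heterodimeric triplet polymerase ribozyme and selected for one round in triplicate at −7 °C, frozen, before gel excision of extended constructs and streptavidin-bead capture. Input and output libraries were Illumina-sequenced, keeping genotypes with ≥10 input reads and ≥1 read per output. Fitness is a logarithmic ratio of genotype to wild-type enrichment, in base 2, using inverse-variance-weighted replicate averages.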", "values": [
      {"variant": "G42U U44G A60G G71A G86A A106U U134G U135C", "polymerase ribozyme fitness (log ratio)": "≤ -4.2"},
      {"variant": "G42U U45A U56A G83A A121U", "polymerase ribozyme fitness (log ratio)": "≤ -4.2"},
      {"variant": "G42U U45C C72U C85G A98G A106C G117U", "polymerase ribozyme fitness (log ratio)": "≤ -4.2"},
      {"variant": "G42U U45G U61G C87G C105G G141C", "polymerase ribozyme fitness (log ratio)": "≤ -4.2"},
      {"variant": "G42U U55A A97G", "polymerase ribozyme fitness (log ratio)": "≤ -4.2"},
      {"variant": "G42U U55A C57U G59C A91U C93G", "polymerase ribozyme fitness (log ratio)": "≤ -4.2"},
      {"variant": "G42U U56A U82G G92U C118G", "polymerase ribozyme fitness (log ratio)": "≤ -4.2"},
      {"variant": "G42U U90G C95U C114U U139A", "polymerase ribozyme fitness (log ratio)": "≤ -4.2"},
      {"variant": "G42U U127A", "polymerase ribozyme fitness (log ratio)": "≤ -4.2"},
      {"variant": "C43A A47C A49G U77C C85U A138U", "polymerase ribozyme fitness (log ratio)": "≤ -4.2"},
      {"variant": "C43A A47C A73G A97U U148C", "polymerase ribozyme fitness (log ratio)": "≤ -4.2"},
      {"variant": "C43A A47U C76U C85U C132A", "polymerase ribozyme fitness (log ratio)": "≤ -4.2"},
      {"variant": "C43A A49U G50U A97C C149G", "polymerase ribozyme fitness (log ratio)": "≤ -4.2"},
      {"variant": "C43A A49U G74A G86C C93A C105U U144A", "polymerase ribozyme fitness (log ratio)": "≤ -4.2"},
      {"variant": "C43A A60G C95U C114G", "polymerase ribozyme fitness (log ratio)": "≤ -4.2"},
      {"variant": "C43A A66C C85G C103A U151A", "polymerase ribozyme fitness (log ratio)": "≤ -4.2"},
      {"variant": "C43A C51U A107G", "polymerase ribozyme fitness (log ratio)": "≤ -4.2"},
      {"variant": "C43A C54G G59C C63U C96U G124U C125G", "polymerase ribozyme fitness (log ratio)": "≤ -4.2"},
      {"variant": "C43A C57A C85A G92A G143U", "polymerase ribozyme fitness (log ratio)": "≤ -4.2"},
      {"variant": "C43A C75A U78C C85U", "polymerase ribozyme fitness (log ratio)": "≤ -4.2"},
      {"variant": "C43A C95U U102C C118U A119C U130A", "polymerase ribozyme fitness (log ratio)": "≤ -4.2"},
      {"variant": "C43A G67U C76U U82C", "polymerase ribozyme fitness (log ratio)": "≤ -4.2"},
      {"variant": "C43A G92A U111C G133A", "polymerase ribozyme fitness (log ratio)": "≤ -4.2"},
      {"variant": "C43A U78G G86U", "polymerase ribozyme fitness (log ratio)": "≤ -4.2"},
      {"variant": "C43G A47C U55A G58C G143C", "polymerase ribozyme fitness (log ratio)": "≤ -4.2"},
      {"variant": "C43G A49C U53A C79G C103A A115G A150G", "polymerase ribozyme fitness (log ratio)": "≤ -4.2"},
      {"variant": "C43G A49G G68A C105G U151G", "polymerase ribozyme fitness (log ratio)": "≤ -4.2"},
      {"variant": "C43G C54A G58A U77A A91U C131A A142C", "polymerase ribozyme fitness (log ratio)": "≤ -4.2"},
      {"variant": "C43G C54U A66G C93G", "polymerase ribozyme fitness (log ratio)": "≤ -4.2"},
      {"variant": "C43G C57A G58A A122C C123A G136A A137G G141C", "polymerase ribozyme fitness (log ratio)": "≤ -4.2"},
      {"variant": "C43G C57U A60G A64G G83A", "polymerase ribozyme fitness (log ratio)": "≤ -4.2"},
      {"variant": "C43G C76U C99A C131G U144C", "polymerase ribozyme fitness (log ratio)": "≤ -4.2"},
      {"variant": "C43G C85G C87U C96U C118A A119U A120G", "polymerase ribozyme fitness (log ratio)": "≤ -4.2"},
      {"variant": "C43G C85G U134G", "polymerase ribozyme fitness (log ratio)": "≤ -4.2"},
      {"variant": "C43G G48C G50C U101C C149A", "polymerase ribozyme fitness (log ratio)": "≤ -4.2"},
      {"variant": "C43G G50U U61C G86A C95U C125U U146G", "polymerase ribozyme fitness (log ratio)": "≤ -4.2"},
      {"variant": "C43G G59C C69G C87G U90C A119U G128C", "polymerase ribozyme fitness (log ratio)": "≤ -4.2"},
      {"variant": "C43G G59C G88U C96U C149G", "polymerase ribozyme fitness (log ratio)": "≤ -4.2"},
      {"variant": "C43G G67A C96U A119U G128U", "polymerase ribozyme fitness (log ratio)": "≤ -4.2"},
      {"variant": "C43G G84A A89C U101G G141A U146G", "polymerase ribozyme fitness (log ratio)": "≤ -4.2"},
      {"variant": "C43G G94A", "polymerase ribozyme fitness (log ratio)": -3.81},
      {"variant": "C43G G94A G133U A137U", "polymerase ribozyme fitness (log ratio)": -4.11},
      {"variant": "C43G U55A G68U G88U C116U", "polymerase ribozyme fitness (log ratio)": "≤ -4.2"},
      {"variant": "C43G U82A", "polymerase ribozyme fitness (log ratio)": "≤ -4.2"},
      {"variant": "C43U A49C A73U C85U C103G U130C U134A", "polymerase ribozyme fitness (log ratio)": "≤ -4.2"},
      {"variant": "C43U A49C G80C U90G G94A C131U", "polymerase ribozyme fitness (log ratio)": "≤ -4.2"},
      {"variant": "C43U A52C C54U C79G", "polymerase ribozyme fitness (log ratio)": "≤ -4.2"},
      {"variant": "C43U A64U C76A G84A C125G", "polymerase ribozyme fitness (log ratio)": "≤ -4.2"},
      {"variant": "C43U A66U G83A", "polymerase ribozyme fitness (log ratio)": "≤ -4.2"},
      {"variant": "C43U A91U A98G C99U U102G", "polymerase ribozyme fitness (log ratio)": "≤ -4.2"},
      {"variant": "C43U A138C", "polymerase ribozyme fitness (log ratio)": "≤ -4.2"},
      {"variant": "C43U C63A A89U C99U U127G", "polymerase ribozyme fitness (log ratio)": "≤ -4.2"},
      {"variant": "C43U C69A U82A C99G", "polymerase ribozyme fitness (log ratio)": "≤ -4.2"},
      {"variant": "C43U C75A G92U C105G", "polymerase ribozyme fitness (log ratio)": "≤ -4.2"},
      {"variant": "C43U C76U C95U G128C U135C", "polymerase ribozyme fitness (log ratio)": "≤ -4.2"},
      {"variant": "C43U C85G U144G", "polymerase ribozyme fitness (log ratio)": "≤ -4.2"},
      {"variant": "C43U C96G", "polymerase ribozyme fitness (log ratio)": "≤ -4.2"},
      {"variant": "C43U C103A C125A G136U U144A", "polymerase ribozyme fitness (log ratio)": "≤ -4.2"},
      {"variant": "C43U C125G U151G", "polymerase ribozyme fitness (log ratio)": "≤ -4.2"},
      {"variant": "C43U G48A C57G C85U", "polymerase ribozyme fitness (log ratio)": "≤ -4.2"},
      {"variant": "C43U G48A C72G G81A G84U A121G G128U A147C C149G", "polymerase ribozyme fitness (log ratio)": "≤ -4.2"},
      {"variant": "C43U G50C C75G C79G G84A", "polymerase ribozyme fitness (log ratio)": "≤ -4.2"},
      {"variant": "C43U G50C C105U A110G G141U", "polymerase ribozyme fitness (log ratio)": "≤ -4.2"},
      {"variant": "C43U G59A G92A C95A", "polymerase ribozyme fitness (log ratio)": "≤ -4.2"},
      {"variant": "C43U G59C G80C", "polymerase ribozyme fitness (log ratio)": "≤ -4.2"},
      {"variant": "C43U G59C U78G C96U U101G G140U", "polymerase ribozyme fitness (log ratio)": "≤ -4.2"},
      {"variant": "C43U G67U", "polymerase ribozyme fitness (log ratio)": "≤ -4.2"},
      {"variant": "C43U G68C C96G C129A G141A", "polymerase ribozyme fitness (log ratio)": "≤ -4.2"},
      {"variant": "C43U G68U G88U U90G", "polymerase ribozyme fitness (log ratio)": "≤ -4.2"},
      {"variant": "C43U G81C G88A G133C", "polymerase ribozyme fitness (log ratio)": "≤ -4.2"},
      {"variant": "C43U G84U A113U", "polymerase ribozyme fitness (log ratio)": "≤ -4.2"},
      {"variant": "C43U G86U", "polymerase ribozyme fitness (log ratio)": -4.15},
      {"variant": "C43U U45A A73G G88A C103G", "polymerase ribozyme fitness (log ratio)": "≤ -4.2"},
      {"variant": "C43U U53A C57A", "polymerase ribozyme fitness (log ratio)": "≤ -4.2"},
      {"variant": "C43U U53A G68U G86A A106U A147U", "polymerase ribozyme fitness (log ratio)": "≤ -4.2"},
      {"variant": "C43U U55A C85U A91U A97C", "polymerase ribozyme fitness (log ratio)": "≤ -4.2"},
      {"variant": "C43U U55A G67C U77A C85A A115C", "polymerase ribozyme fitness (log ratio)": "≤ -4.2"},
      {"variant": "C43U U55G A60U U109A U145C U146C", "polymerase ribozyme fitness (log ratio)": "≤ -4.2"},
      {"variant": "C43U U56A C63G C125A A137C U146G", "polymerase ribozyme fitness (log ratio)": "≤ -4.2"},
      {"variant": "C43U U56A G94A", "polymerase ribozyme fitness (log ratio)": "≤ -4.2"},
      {"variant": "C43U U61G C96G C105G", "polymerase ribozyme fitness (log ratio)": "≤ -4.2"},
      {"variant": "C43U U82G A89G C116A", "polymerase ribozyme fitness (log ratio)": "≤ -4.2"},
      {"variant": "U44A A47C U82C C87A U102G C116A", "polymerase ribozyme fitness (log ratio)": "≤ -4.2"},
      {"variant": "U44A A47U C72G G86C A91C", "polymerase ribozyme fitness (log ratio)": "≤ -4.2"}
    ]}
  ]
}
